Measured values published in PMC6602471.
The list shows a part of the results. At the low end of the ranking the order means little.

target: T1, ETS1 (UniProt P14921); assay: custom PBM; conditions: custom protein-binding microarray; buffer, salt, pH and temperature not stated; high values mean tight binding; double strand, one strand shown
T1 sequence: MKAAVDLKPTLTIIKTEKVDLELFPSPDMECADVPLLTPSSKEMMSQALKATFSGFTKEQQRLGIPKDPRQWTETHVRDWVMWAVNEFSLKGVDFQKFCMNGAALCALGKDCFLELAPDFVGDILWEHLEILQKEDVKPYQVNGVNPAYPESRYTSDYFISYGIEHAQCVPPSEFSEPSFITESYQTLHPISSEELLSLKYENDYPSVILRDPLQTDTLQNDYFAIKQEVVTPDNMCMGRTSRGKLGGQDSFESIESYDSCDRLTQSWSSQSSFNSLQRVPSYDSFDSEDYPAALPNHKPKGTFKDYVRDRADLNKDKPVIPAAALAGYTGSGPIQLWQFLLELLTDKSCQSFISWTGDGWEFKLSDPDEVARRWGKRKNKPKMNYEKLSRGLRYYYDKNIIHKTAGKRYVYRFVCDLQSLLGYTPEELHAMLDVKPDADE

Sequence | binding signal (log fluorescence intensity)
GATTAATTTCTGACCTTATTCGCACGTGCCATAACAGTCTTGATTCGCTTGACGCTGCTG | 8.31
TGTCGGGTAAGGGAATGAAGATCACGTGAATGAAAAGTCTTGATTCGCTTGACGCTGCTG | 8.13
TCCGGCTACCAGCTCCACCCACTTGAGGCCTTGTAGGTCTTGATTCGCTTGACGCTGCTG | 8.24
TGTCGGGTAAGGGAATGTAGATCACGTGAATGAAATGTCTTGATTCGCTTGACGCTGCTG | 8.33
TACCGACTTATATATGCGAATGCACATGAATAGACCGTCTTGATTCGCTTGACGCTGCTG | 8.09
CAGCAAAGGACTTCTTCCCTGAAGCAATTGATAACCGTCTTGATTCGCTTGACGCTGCTG | 8.31
TCCGGCTACCAGCTCCTCCCACTTCAGGCCTTGTAGGTCTTGATTCGCTTGACGCTGCTG | 8.25
CGGAAGTGTCGTAAACGTCGGATATCCGGTTTTTCTGTCTTGATTCGCTTGACGCTGCTG | 11.9
GCTGCTGCGATGCATACCCCACCGGATGTGACCCCGGTCTTGATTCGCTTGACGCTGCTG | 9.95
TGTCGGGTAAAGGAATGTAGATCACGTGAATGAAAAGTCTTGATTCGCTTGACGCTGCTG | 8.3
GGAAAAAGGCCCAGGGTAACACCGGTAGTGGGCTTAGTCTTGATTCGCTTGACGCTGCTG | 8.16
GATTAATTTCTGCGCTTATTCGCACGTGCCATAACAGTCTTGATTCGCTTGACGCTGCTG | 8.2
GGAAAAAGGCCCAGGGTAACACCGGAAGTGGGCTTAGTCTTGATTCGCTTGACGCTGCTG | 12
TACTGACTTAGATATGCGAATGCACATGAATAGACCGTCTTGATTCGCTTGACGCTGCTG | 8.21
CAGCATAGGACTTCTTCCCTGTAGCAATTGATAACCGTCTTGATTCGCTTGACGCTGCTG | 8.17
TACTGACTTATATATGCGAATGCAAATGAATAGACCGTCTTGATTCGCTTGACGCTGCTG | 8.1
CGGAAGTGTCGTAAACGTCGGTTATCCGGTTCTTCTGTCTTGATTCGCTTGACGCTGCTG | 9.21
AGGAAGTGTCGTAAACGTCGGATATCCGGTTCTTCTGTCTTGATTCGCTTGACGCTGCTG | 12
TACTGACTTATATATGCGAATGCACATGAGTAGACCGTCTTGATTCGCTTGACGCTGCTG | 8.14
GGAAAAAGGCCCAGGGTCACACCGGAAGTGGGCTTAGTCTTGATTCGCTTGACGCTGCTG | 11.9
CACAATTTTTACAGTAATGAAGCACGCGTAACTCCTGTCTTGATTCGCTTGACGCTGCTG | 8.24

Sequence | binding signal (log fluorescence intensity)
GCTGCTGCGGTTCATACCCCACCGGATGTGACCCCGGTCTTGATTCGCTTGACGCTGCTG | 10.2
CTGGGATTTGACCCAACTCTGCCACGTGGGTCGTTTGTCTTGATTCGCTTGACGCTGCTG | 8.26
TCCGGCTACCAGCTCCACCCAATTCAGGCCTTGTAGGTCTTGATTCGCTTGACGCTGCTG | 8.12
GGAAAAAGGCCCAGGGTGACACCGGAAGTGGGCTTAGTCTTGATTCGCTTGACGCTGCTG | 11.8
TAAAGGGATGACGGTTGTGGTAGTTCCGGGTATTAAGTCTTGATTCGCTTGACGCTGCTG | 8.34
TCCGGCTACCAGCTCCACACACTTCAGGCCTTGTAGGTCTTGATTCGCTTGACGCTGCTG | 8.09
GGAAAAAGGCCCAGGGTAACACCGGAAGTGGGCTTCGTCTTGATTCGCTTGACGCTGCTG | 12.1
TGTCGGGTTAGGGAATGTAGATCACGTGAATGAAAAGTCTTGATTCGCTTGACGCTGCTG | 8.1
CTGGGACTTGACCCAACTCTGCCTCGTGGGTCGTTTGTCTTGATTCGCTTGACGCTGCTG | 8.13
GTGTATAGGATCCCAACCAACACACGTGTTAAAATGGTCTTGATTCGCTTGACGCTGCTG | 8.28
CACAATTTTTACAGTAAAGTAGCACGCGTAACTCCTGTCTTGATTCGCTTGACGCTGCTG | 8.29
TAAAGGGAACACGGTTGTGGTAGTTCCGGGTATTAAGTCTTGATTCGCTTGACGCTGCTG | 8.29
TCCGGCTACCAGCTCCACCCACATCAGGCCTTGTAGGTCTTGATTCGCTTGACGCTGCTG | 8.27
CTGGGACTTGACCCAACTCTGCCACGTGGGTCGTTCGTCTTGATTCGCTTGACGCTGCTG | 8.24
TAAAGGGAAGACGGTGGTGGTAGTTCCGGGTATTAAGTCTTGATTCGCTTGACGCTGCTG | 8.68
GTGTATAGGATCCGATCCAACACACGTGTTAAAATGGTCTTGATTCGCTTGACGCTGCTG | 8.18
GATTAATTTCTGCCTTTATTCGCACGTGCCATAACAGTCTTGATTCGCTTGACGCTGCTG | 8.1
CGGAAGTATCGTAAACGTCGGATATCCGGTTCTTCTGTCTTGATTCGCTTGACGCTGCTG | 11.5
CAGCATAGGACTTCTTCCCTGAATCAATTGATAACCGTCTTGATTCGCTTGACGCTGCTG | 8.24
GTAAAAAGGCCCAGGGTAACACCGGAAGTGGGCTTAGTCTTGATTCGCTTGACGCTGCTG | 12
GATTAATTTCTGCCCTAATTCGCACGTGCCATAACAGTCTTGATTCGCTTGACGCTGCTG | 8.2

Sequence | binding signal (log fluorescence intensity)
GCTGCTGCGGTGCATACCCCTCCGGATGTGACCCCGGTCTTGATTCGCTTGACGCTGCTG | 8.64
TGTCGGGTAAGGGACTGTAGATCACGTGAATGAAAAGTCTTGATTCGCTTGACGCTGCTG | 8.1
GTGTATAGGATCCCATCCAACACACGTGTCAAAATGGTCTTGATTCGCTTGACGCTGCTG | 8.18
TACTGACTTATATATGCGAATACACATGAATAGACCGTCTTGATTCGCTTGACGCTGCTG | 8.27
TGTCGGGTAAGGGAATGTAGATCACGCGAATGAAAAGTCTTGATTCGCTTGACGCTGCTG | 8.23
GTGTAGAGGATCCCATCCAACACACGTGTTAAAATGGTCTTGATTCGCTTGACGCTGCTG | 8.26
CAGCATAGGACTTCTTCCCTGAAGCAATTGATAACTGTCTTGATTCGCTTGACGCTGCTG | 8.3
TACTGACTTATATATGCGAATGCGCATGAATAGACCGTCTTGATTCGCTTGACGCTGCTG | 8.09
GATTAATTCCTGCCCTTATTCGCACGTGCCATAACAGTCTTGATTCGCTTGACGCTGCTG | 10.3
TAAAGGGAAGACGGTTCTGGTAGTTCCGGGTATTAAGTCTTGATTCGCTTGACGCTGCTG | 8.63
TCCGGCTACCAGCTCCAGCCACTTCAGGCCTTGTAGGTCTTGATTCGCTTGACGCTGCTG | 8.12
GCTGCTGCGGTGCATACCCAACCGGATGTGACCCCGGTCTTGATTCGCTTGACGCTGCTG | 10.3
GTGTATAGGATCCCATCCAACACACCTGTTAAAATGGTCTTGATTCGCTTGACGCTGCTG | 8.32
TACTGACTTATATATGCGGATGCACATGAATAGACCGTCTTGATTCGCTTGACGCTGCTG | 8.31
TCCTGCTACCAGCTCCACCCACTTCAGGCCTTGTAGGTCTTGATTCGCTTGACGCTGCTG | 8.42
TAAAGGGAAGACGGCTGTGGTAGTTCCGGGTATTAAGTCTTGATTCGCTTGACGCTGCTG | 8.35
GCTGCTGCGGTGCATACCCCATCGGATGTGACCCCGGTCTTGATTCGCTTGACGCTGCTG | 8.41
TACTGACTTATTTATGCGAATGCACATGAATAGACCGTCTTGATTCGCTTGACGCTGCTG | 8.24
CAGCATAGGACTTCTTCCCTGAAGCAATTGATCACCGTCTTGATTCGCTTGACGCTGCTG | 8.29
TGTCGGGTAAGGGAATGTAGATCACGTGAATGTAAAGTCTTGATTCGCTTGACGCTGCTG | 8.34
CTGGGACTTGACCCAACTCTGCCACGTGGGTCGTATGTCTTGATTCGCTTGACGCTGCTG | 8.32

Sequence | binding signal (log fluorescence intensity)
CTGGGACTAGACCCAACTCTGCCACGTGGGTCGTTTGTCTTGATTCGCTTGACGCTGCTG | 8.14
GTGTATAGGATCCCATCCAACACACGTGTTACAATGGTCTTGATTCGCTTGACGCTGCTG | 8.2
GGAGAAAGGCCCAGGGTAACACCGGAAGTGGGCTTAGTCTTGATTCGCTTGACGCTGCTG | 11.9
GTGTATAGGATCCCATCCAACACACATGTTAAAATGGTCTTGATTCGCTTGACGCTGCTG | 8.12
GATTAATTTCTGCCCGTATTCGCACGTGCCATAACAGTCTTGATTCGCTTGACGCTGCTG | 8.33
GGAAAAAGGCCCAGGGTAACACCGGAAGTGGGCTCAGTCTTGATTCGCTTGACGCTGCTG | 12
TGTAGGGTAAGGGAATGTAGATCACGTGAATGAAAAGTCTTGATTCGCTTGACGCTGCTG | 8.35
TCTGCTGCGGTGCATACCCCACCGGATGTGACCCCGGTCTTGATTCGCTTGACGCTGCTG | 10.1
CAGCATAGGACTTCTTCCCAGAAGCAATTGATAACCGTCTTGATTCGCTTGACGCTGCTG | 8.23
CTGGGACTTGAGCCAACTCTGCCACGTGGGTCGTTTGTCTTGATTCGCTTGACGCTGCTG | 8.24
CAGCATAGGACTTCTTCCCTGAAGCAATTGAGAACCGTCTTGATTCGCTTGACGCTGCTG | 8.15
GATTAATTTGTGCCCTTATTCGCACGTGCCATAACAGTCTTGATTCGCTTGACGCTGCTG | 8.21
GTATATAGGATCCCATCCAACACACGTGTTAAAATGGTCTTGATTCGCTTGACGCTGCTG | 8.29
CTGGGAGTTGACCCAACTCTGCCACGTGGGTCGTTTGTCTTGATTCGCTTGACGCTGCTG | 8.26
GGAAAAAGGCCCAGCGTAACACCGGAAGTGGGCTTAGTCTTGATTCGCTTGACGCTGCTG | 11.9
CACAATTTTTACAGTAATGTAGCACGCGTTACTCCTGTCTTGATTCGCTTGACGCTGCTG | 8.29
GGAAAAAGGCCCAGGGTAACACCGGAAGTGGGCATAGTCTTGATTCGCTTGACGCTGCTG | 12
TCCGGCTACCAGCTCCACCCACTTCAGGGCTTGTAGGTCTTGATTCGCTTGACGCTGCTG | 8.11
